Several values for one entry are separate records, joined by “and”; a condition that tells them apart may be missing. Equal entries are not always repeated. This continues a long series; more values of the same kind are listed elsewhere. Toxic doses and inconclusive results are not listed.
Test system: P388 leukemia ip, CD2F1 mice, survival T/C
Test: NCI In Vivo Anticancer Drug Screen. Data for tumor model P388 Leukemia (intraperitoneal) in CD2F1 (CDF1) mice
Conditions: endpoint: median survival time, higher = longer survival
In short: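 Mice carrying the transplanted tumor received test compound or vehicle. Survival was recorded in each group, and the value is the treated-group measurement divided by that of the vehicle-treated control group.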

Structure (SMILES): O=C1c2c(O)ccc(O)c2C(=O)c2c(NCCNCCO)ccc(NCCNCCO)c21
- T/C (dose: 0.25 mg/kg/injection, schedule: Q01DX009 (ip), vehicle: water): 194 % of control and 173 % of control and 175 % of control
- T/C (dose: 0.31 mg/kg/injection, schedule: Q01DX005 (ip), vehicle: water): 175 % of control and 178 % of control and 218 % of control
- T/C (dose: 0.31 mg/kg/injection, schedule: Q01DX009 (ip), vehicle: water): 166 % of control
- T/C (dose: 0.31 mg/kg/injection, schedule: Q04DX003 (ip), vehicle: water): 159 % of control
- T/C (dose: 0.38 mg/kg/injection, schedule: Q04DX003 (ip), vehicle: saline): 159 % of control
- T/C (dose: 0.38 mg/kg/injection, schedule: Q04DX003 (ip), vehicle: water): 176 % of control and 208 % of control
- T/C (dose: 0.4 mg/kg/injection, schedule: Q01DX009 (ip), vehicle: acid diluted with saline): 436 % of control
- T/C (dose: 0.47 mg/kg/injection, schedule: Q04DX003 (ip), vehicle: saline): 209 % of control
- T/C (dose: 0.5 mg/kg/injection, schedule: Q01DX005 (ip), vehicle: saline): 401 % of control
- T/C (dose: 0.5 mg/kg/injection, schedule: Q01DX005 (iv), vehicle: saline): 167 % of control
- T/C (dose: 0.5 mg/kg/injection, schedule: Q01DX009 (ip), vehicle: water): 239 % of control and 265 % of control and 155 % of control
- T/C (dose: 0.5 mg/kg/injection, schedule: Q04DX003 (ip), vehicle: saline): 158 % of control
- T/C (dose: 0.62 mg/kg/injection, schedule: Q01DX005 (ip), vehicle: water): 231 % of control and 237 % of control and 250 % of control
- T/C (dose: 0.62 mg/kg/injection, schedule: Q01DX009 (ip), vehicle: water): 229 % of control and 236 % of control
- T/C (dose: 0.65 mg/kg/injection, schedule: Q01DX009 (ip), vehicle: acid diluted with saline): 409 % of control
- T/C (dose: 0.65 mg/kg/injection, schedule: Q04DX003 (ip), vehicle: saline): 221 % of control
- T/C (dose: 0.75 mg/kg/injection, schedule: Q04DX002 (ip), vehicle: distilled water + Tween-80): 203 % of control
- T/C (dose: 0.75 mg/kg/injection, schedule: Q04DX002 (ip), vehicle: saline): 199 % of control
- T/C (dose: 0.75 mg/kg/injection, schedule: Q04DX003 (ip), vehicle: saline): 168 % of control and 196 % of control and 186 % of control
- T/C (dose: 0.75 mg/kg/injection, schedule: Q04DX003 (ip), vehicle: water): 186 % of control and 200 % of control
- T/C (dose: 0.78 mg/kg/injection, schedule: Q01DX005 (ip), vehicle: saline): 364 % of control
- T/C (dose: 0.78 mg/kg/injection, schedule: Q01DX005 (iv), vehicle: saline): 203 % of control
- T/C (dose: 0.78 mg/kg/injection, schedule: Q04DX003 (ip), vehicle: saline): 185 % of control
- T/C (dose: 0.8 mg/kg/injection, schedule: Q01DX009 (ip), vehicle: acid diluted with saline): 436 % of control
- T/C (dose: 0.8 mg/kg/injection, schedule: Q04DX003 (ip), vehicle: saline): 225 % of control
- T/C (dose: 0.86 mg/kg/injection, schedule: Q04DX002 (ip), vehicle: water): 169 % of control and 191 % of control
- T/C (dose: 1.0 mg/kg/injection, schedule: Q01DX005 (ip), vehicle: saline): 401 % of control
- T/C (dose: 1.0 mg/kg/injection, schedule: Q01DX005 (iv), vehicle: saline): 169 % of control
- T/C (dose: 1.0 mg/kg/injection, schedule: Q01DX009 (ip), vehicle: other): 450 % of control
- T/C (dose: 1.0 mg/kg/injection, schedule: Q01DX009 (ip), vehicle: water): 206 % of control and 265 % of control and 163 % of control
- T/C (dose: 1.0 mg/kg/injection, schedule: Q04DX003 (ip), vehicle: saline): 172 % of control and 181 % of control
- T/C (dose: 1.08 mg/kg/injection, schedule: Q04DX003 (ip), vehicle: saline): 221 % of control
- T/C (dose: 1.25 mg/kg/injection, schedule: Q01DX005 (ip), vehicle: water): 185 % of control and 250 % of control and 291 % of control
- T/C (dose: 1.25 mg/kg/injection, schedule: Q01DX009 (ip), vehicle: water): 263 % of control and 312 % of control
- T/C (dose: 1.3 mg/kg/injection, schedule: Q01DX005 (ip), vehicle: saline): 560 % of control
- T/C (dose: 1.3 mg/kg/injection, schedule: Q04DX002 (ip), vehicle: water): 215 % of control and 290 % of control
- T/C (dose: 1.3 mg/kg/injection, schedule: Q04DX003 (ip), vehicle: saline): 175 % of control and 189 % of control
- T/C (dose: 1.3 mg/kg/injection, schedule: Q04DX003 (iv), vehicle: saline): 203 % of control
- T/C (dose: 1.44 mg/kg/injection, schedule: Q04DX002 (ip), vehicle: water): 191 % of control and 205 % of control
- T/C (dose: 1.5 mg/kg/injection, schedule: Q04DX002 (ip), vehicle: distilled water + Tween-80): 250 % of control
- T/C (dose: 1.5 mg/kg/injection, schedule: Q04DX002 (ip), vehicle: saline): 241 % of control
- T/C (dose: 1.5 mg/kg/injection, schedule: Q04DX003 (ip), vehicle: saline): 192 % of control and 241 % of control and 222 % of control
- T/C (dose: 1.5 mg/kg/injection, schedule: Q04DX003 (ip), vehicle: water): 254 % of control and 260 % of control
- T/C (dose: 1.5 mg/kg/injection, schedule: Q04DX003 (iv), vehicle: saline): 151 % of control
- T/C (dose: 1.56 mg/kg/injection, schedule: Q04DX002 (ip), vehicle: water): 200 % of control
- T/C (dose: 1.62 mg/kg/injection, schedule: Q04DX003 (ip), vehicle: saline): 247 % of control
- T/C (dose: 1.8 mg/kg/injection, schedule: Q04DX003 (ip), vehicle: saline): 201 % of control and 273 % of control
- T/C (dose: 1.8 mg/kg/injection, schedule: Q04DX003 (ip), vehicle: water): 210 % of control and 229 % of control
- T/C (dose: 2.0 mg/kg/injection, schedule: Q01DX001 (ip), vehicle: acid diluted with saline): 571 % of control
- T/C (dose: 2.0 mg/kg/injection, schedule: Q01DX005 (ip), vehicle: saline): 401 % of control
- T/C (dose: 2.0 mg/kg/injection, schedule: Q01DX005 (iv), vehicle: saline): 187 % of control
- T/C (dose: 2.0 mg/kg/injection, schedule: Q01DX009 (ip), vehicle: other): 95 % of control
- T/C (dose: 2.0 mg/kg/injection, schedule: Q01DX009 (ip), vehicle: water): 250 % of control [middle of 4 runs]
- T/C (dose: 2.0 mg/kg/injection, schedule: Q04DX003 (ip), vehicle: saline): 183 % of control and 201 % of control
- T/C (dose: 2.16 mg/kg/injection, schedule: Q01DX005 (ip), vehicle: saline): 289 % of control
- T/C (dose: 2.16 mg/kg/injection, schedule: Q01DX005 (iv), vehicle: saline): 96 % of control
- T/C (dose: 2.16 mg/kg/injection, schedule: Q04DX002 (ip), vehicle: water): 267 % of control and 409 % of control
- T/C (dose: 2.16 mg/kg/injection, schedule: Q04DX003 (ip), vehicle: acid diluted with saline): 409 % of control
- T/C (dose: 2.16 mg/kg/injection, schedule: Q04DX003 (ip), vehicle: saline): 212 % of control and 420 % of control
- T/C (dose: 2.2 mg/kg/injection, schedule: Q04DX003 (ip), vehicle: saline): 294 % of control
- T/C (dose: 2.4 mg/kg/injection, schedule: Q04DX002 (ip), vehicle: water): 227 % of control and 233 % of control
- T/C (dose: 2.5 mg/kg/injection, schedule: Q01DX005 (ip), vehicle: water): 199 % of control and 259 % of control
